Measurements: the RNAGym collection of RNA variant scans (doi:10.7554/elife.90254)
The source gives no read counts; variants with many changes may rest on few reads.

B1: OR4K15 (parent)
chain: GUUAACGGUCAUAGGCCAUGGAAACUAGGAGCACCAUUUCGCUGCCAGUGAAGAAAUGAACAAAGAAAAUCUGGGCCAGGCAGGCAUCAAAAGAAAUAGUCUUGCGCUCAACCAGAAAGUCUGUAAUCAUUUUAAGGGUA

Variants of: B1
Assay: self-cleavage, relative activity (ratio to wild type); higher = more cleavage; in vitro, sequencing; the parent is a self-cleaving ribozyme

Variant	self-cleavage
U122A U127A A129G	2.13
A126G U127C U132A	1.01
U120C U124C U131C	1.53
U122A A125G A135U	1.03
U122A U127C A129U	0.36
U120C U122C U130C	0.4
A126G U127A G137A	2
